These binders were tested against EntF (Escherichia coli, UniProt P11454 1-1293) (assay: ATP-PPi exchange assay).

Binder	Kd [nM]
YbdZ (wild type), individually purified (natural protein, Escherichia coli, UniProt P18393 1-72, looked up) MAFSNPFDDPQGAFYILRNAQGQFSLWPQQCVLPAGWDIVCQPQSQASCQQWLEAHWRTLTPTNFTQLQEAQ	186 ± 69
YbdZ Q69A (natural protein, Escherichia coli, UniProt P18393 1-72, looked up) MAFSNPFDDPQGAFYILRNAQGQFSLWPQQCVLPAGWDIVCQPQSQASCQQWLEAHWRTLTPTNFTQLAEAQ	374 ± 130
YbdZ W27A (natural protein, Escherichia coli, UniProt P18393 1-72, looked up) MAFSNPFDDPQGAFYILRNAQGQFSLAPQQCVLPAGWDIVCQPQSQASCQQWLEAHWRTLTPTNFTQLQEAQ	636 ± 78
YbdZ W37A (natural protein, Escherichia coli, UniProt P18393 1-72, looked up) MAFSNPFDDPQGAFYILRNAQGQFSLWPQQCVLPAGADIVCQPQSQASCQQWLEAHWRTLTPTNFTQLQEAQ	1180 ± 338
YbdZ D8A (natural protein, Escherichia coli, UniProt P18393 1-72, looked up) MAFSNPFADPQGAFYILRNAQGQFSLWPQQCVLPAGWDIVCQPQSQASCQQWLEAHWRTLTPTNFTQLQEAQ	555 ± 150

Continued, values first:

Kd [nM]	Binder
213 ± 100	YbdZ L53A (natural protein, Escherichia coli, UniProt P18393 1-72, looked up) MAFSNPFDDPQGAFYILRNAQGQFSLWPQQCVLPAGWDIVCQPQSQASCQQWAEAHWRTLTPTNFTQLQEAQ
295 ± 88	YbdZ L17A (natural protein, Escherichia coli, UniProt P18393 1-72, looked up) MAFSNPFDDPQGAFYIARNAQGQFSLWPQQCVLPAGWDIVCQPQSQASCQQWLEAHWRTLTPTNFTQLQEAQ
229 ± 85	YbdZ P62A (natural protein, Escherichia coli, UniProt P18393 1-72, looked up) MAFSNPFDDPQGAFYILRNAQGQFSLWPQQCVLPAGWDIVCQPQSQASCQQWLEAHWRTLTATNFTQLQEAQ
109 ± 27	YbdZ I16A, individually purified (natural protein, Escherichia coli, UniProt P18393 1-72, looked up) MAFSNPFDDPQGAFYALRNAQGQFSLWPQQCVLPAGWDIVCQPQSQASCQQWLEAHWRTLTPTNFTQLQEAQ
270 ± 88	YbdZ A55S (natural protein, Escherichia coli, UniProt P18393 1-72, looked up) MAFSNPFDDPQGAFYILRNAQGQFSLWPQQCVLPAGWDIVCQPQSQASCQQWLESHWRTLTPTNFTQLQEAQ
41 ± 10	YbdZ S48A (natural protein, Escherichia coli, UniProt P18393 1-72, looked up) MAFSNPFDDPQGAFYILRNAQGQFSLWPQQCVLPAGWDIVCQPQSQAACQQWLEAHWRTLTPTNFTQLQEAQ

Reference: article PMC6050124 (Biochemistry, 2018)
